# Data reported in the antibiotic and cytotoxicity screens of Wong et al. (2023).
# The other results are listed elsewhere or left out.
# Tested on: HSkMC (human skeletal muscle cells)
# Assay: cytotoxicity call (relative viability < 0.9)
# Conditions: 10 µM
row,Compound,cytotoxicity call
1,C[C@@H]1CN([C@H](C)CO)C(=O)c2cc(C#Cc3ccccc3)cnc2O[C@@H]1CN(C)C(=O)CCN1CCCCC1,inactive
2,C[C@@H]1CN([C@@H](C)CO)C(=O)c2cccc(NS(=O)(=O)c3ccc(F)cc3)c2O[C@@H]1CN(C)Cc1ccc(Cl)c(Cl)c1,inactive
3,CCCCCNC(=N)NN=Cc1c[nH]c2ccc(OC)cc12.O=C(O)C=CC(=O)O,inactive
4,C[C@@H]1CN([C@@H](C)CO)C(=O)c2cc(NS(=O)(=O)c3ccc(F)cc3)ccc2O[C@@H]1CN(C)Cc1ccc(Cl)c(Cl)c1,inactive
5,COc1ccc(NC(=O)Nc2ccc3c(c2)[C@H]2C[C@H](CC(=O)NCc4ccccn4)O[C@H](CO)[C@H]2O3)cc1,inactive
6,C[C@H]1CN([C@@H](C)CO)C(=O)c2cccc(NC(=O)Nc3ccc(F)cc3)c2O[C@H]1CN(C)S(C)(=O)=O,inactive
7,CSc1nn(C)c2cnn(C)c(=O)c12,inactive
8,CCC1C(=O)OCC1Cc1cncn1C.O=[N+]([O-])O (configuration not stated),inactive
9,CCOC(=O)N(C)C[C@H]1OCc2cn(nn2)CCCC(=O)N([C@H](C)CO)C[C@@H]1C,inactive
10,CO[C@H]1CN(C)C(=O)c2cc(NC(=O)Nc3ccccc3F)ccc2OC[C@H](C)N(CCC(F)(F)F)C[C@@H]1C,inactive
11,Cc1cccc2sc(NC(=O)c3ccc(C(C)(C)C)cc3)nc12,inactive
12,CCCC#Cc1ccc2c(c1)O[C@H](CN(C)Cc1ccc3c(c1)OCO3)[C@@H](C)CN([C@H](C)CO)S2(=O)=O,inactive
13,C[C@@H]1CN([C@@H](C)CO)S(=O)(=O)c2ccc(C#Cc3cccc(F)c3)cc2O[C@H]1CN(C)S(=O)(=O)c1cn(C)cn1,inactive
14,C[C@@H]1CN([C@H](C)CO)C(=O)Cc2cc(NC(=O)Cc3cn(C)c4ccccc34)ccc2O[C@H]1CN(C)Cc1ccc(C(F)(F)F)cc1,inactive
15,CC1(C)OC2COC3(COS(N)(=O)=O)OC(C)(C)OC3C2O1 (configuration not stated),inactive
16,COc1ccc(NC(=O)N(C)C[C@H]2OCCCC[C@H](C)Oc3ccc(NC(=O)CCC(F)(F)F)cc3C(=O)N([C@H](C)CO)C[C@@H]2C)cc1,inactive

row,Compound,cytotoxicity call
1,CCC(=O)OC1C2CC3=C4CC(=O)OC(c5ccoc5)C4(C)CCC3C(C)(C2=O)C(CC(=O)OC)C1(C)C (configuration not stated),inactive
2,C[C@@H]1CN([C@H](C)CO)C(=O)Cc2cc(NC(=O)Nc3cccc4ccccc34)ccc2O[C@@H]1CN(C)Cc1ccccc1,inactive
3,C[C@H](CO)N1C[C@H](C)[C@@H](CN(C)Cc2ccc(C(F)(F)F)cc2)Oc2ccc(NC(=O)Cc3ccccc3)cc2C1=O,inactive
4,CC1(N)CCN(c2cnc(-c3cccc(Cl)c3Cl)c(N)n2)CC1,inactive
5,Cc1noc(C)c1S(=O)(=O)Nc1ccc2c(c1)C(=O)N([C@@H](C)CO)C[C@@H](C)[C@@H](CN(C)Cc1ccccc1)O2,inactive
6,C[C@@H]1CCCCO[C@@H](CN(C)CC2CCCCC2)[C@H](C)CN([C@@H](C)CO)C(=O)c2cc(NS(=O)(=O)c3ccc(F)cc3)ccc2O1,inactive
7,[N-]=[N+]=NCCOCCNC(=O)CCCOc1ccc(CS(=O)c2nnc(-c3ccc(F)cc3)o2)nc1 (configuration not stated),active
8,C[C@@H]1CN([C@H](C)CO)C(=O)c2cccc(NS(C)(=O)=O)c2O[C@H]1CN(C)Cc1ccc(C(F)(F)F)cc1,inactive
9,C[C@H](NC(=O)N(C)C[C@@H]1OCc2ccccc2-c2c(n(C)c3ccccc23)C(=O)N([C@H](C)CO)C[C@H]1C)c1ccccc1,inactive
10,O=C(C[C@H]1NC(=O)NC1=O)NCc1[nH]nc2c1CCC2,inactive
11,Cc1ccc(S(=O)(=O)N(C)C[C@@H]2Oc3ccc(NC(=O)Nc4ccc(C(F)(F)F)cc4)cc3CC(=O)N([C@H](C)CO)C[C@H]2C)cc1,inactive
12,C[C@@H]1CN([C@@H](C)CO)C(=O)Cc2cc(NS(C)(=O)=O)ccc2O[C@H]1CN(C)S(=O)(=O)c1cccs1,inactive
13,C[C@H](CO)N1C[C@H](C)[C@@H](CN(C)Cc2ccncc2)OCCCC[C@H](C)Oc2ccc(NC(=O)Cc3ccccc3)cc2C1=O,inactive
14,NC(=O)C[C@H]1Nc2ccccc2NC1=O,inactive
15,CO[C@@H]1CN(C)C(=O)c2ccc(NS(=O)(=O)CC(F)(F)F)cc2OC[C@@H](C)N(C(=O)c2ccc3c(c2)OCO3)C[C@H]1C,inactive
16,C[C@@H]1CC[C@@]2(OC1)O[C@H]1C[C@H]3[C@H]4CC=C5C[C@@H](O[C@@H]6O[C@H](CO)[C@@H](O[C@@H]7O[C@@H](C)[C@H](O)[C@@H](O)[C@H]7O[C@@H]7O[C@@H](C)[C@H](O)[C@@H](O)[C@H]7O)[C@H](O)[C@H]6O)CC[C@]5(C)[C@@H]4CC[C@]3(C)[C@H]1[C@@H]2C,active
